Laboratory results published in patent US20090143279A1 (priority 2007, published 2009).

These molecules were tested on cellular ATP levels. Details: not given.

Q: For `CNC[C@H](O)c1cccc(O)c1` [phenylephrine], which ATP is on record?
A: −0.455

Q: Which ATP does the source give for `CN1CCCC(CC2c3ccccc3Sc3ccccc32)C1` (centres unmarked) [metixene] here?
A: −1.165

Q: With methyl benzethonium chloride as the molecule, how does the ATP read?
A: −3.432

Q: How did the ATP turn out when `C[C@@H](N)[C@@H](O)c1ccccc1` [1S,2R-phenylpropanolamine] was run?
A: −0.204

Same assay, conditions: 13.14 μM; composite Z-score vs DMSO

Q: For `O=C(O)CCCc1ccc(N(CCCl)CCCl)cc1` [chlorambucil], which ATP is on record?
A: −0.010

Same assay, conditions: 13.16 μM; composite Z-score vs DMSO

Q: How did the ATP turn out when `CC(COc1ccccc1)N(CCCl)Cc1ccccc1` (centres unmarked) [phenoxybenzamine] was run?
A: 0.878

Same assay, conditions: 14.44 μM; composite Z-score vs DMSO

Q: With `CC(C)(C)NCC(O)c1cc(Cl)c(N)c(Cl)c1` (centres unmarked) [clenbuterol] as the molecule, how does the ATP read?
A: −0.416

Same assay, conditions: 18.5 μM; composite Z-score vs DMSO

Q: Which ATP does the source give for `COc1c2occc2cc2ccc(=O)oc12` [methoxy-8-psoralen] here?
A: −0.070

Same assay, conditions: 20 μM; composite Z-score vs DMSO

Q: `CC(COc1ccccc1)N(CCCl)Cc1ccccc1` (centres unmarked) [phenoxybenzamine] was tested. Which ATP did it give?
A: 0.340

Q: Which ATP does the source give for `Oc1ncnc2[nH]ncc12` [allopurinol] here?
A: 1.218

Q: For `NC(=O)c1cc([N+](=O)[O-])cc([N+](=O)[O-])c1` [nitromide], which ATP is on record?
A: 0.548

Q: Which ATP does the source give for `O=C(O)CCCc1ccc(N(CCCl)CCCl)cc1` [chlorambucil] here?
A: 0.189

Same assay, conditions: Conc 20 μM; normalized score vs mock-treated (DMSO) wells

Q: `Sc1nc2ccccc2s1` [2-mercaptobenzothiazole] was tested. Which “ATP (composite Z-score)” value did it give?
A: −0.408

Q: How did the “ATP (composite Z-score)” value turn out when `COc1cc(O)c2c(=O)cc(-c3ccc(O)cc3)oc2c1` [genkwanin] was run?
A: 0.957

Q: For `COc1cc(/C=C/CO)ccc1O` [coniferyl alcohol], which “ATP (composite Z-score)” value is on record?
A: 0.124

Q: For `COc1ccc2c(c1)C1(C)CCC(=O)CC1CC2` (centres unmarked), which “ATP (composite Z-score)” value is on record?
A: −0.133

Q: Which “ATP (composite Z-score)” value does the source give for `O=c1c(O)cccc2c([C@H]3Oc4cc(O)cc(O)c4C[C@H]3O)cc(O)c(O)c12` [theaflavanin] here?
A: 1.006

Q: With `OC[C@@H](O)[C@@H](OC1O[C@H](CO)[C@@H](O)[C@H](O)[C@H]1O)[C@H](O)[C@@H](O)CO` (some centres unmarked) [glucitol-4-gucopyanoside] as the molecule, how does the “ATP (composite Z-score)” value read?
A: −0.172

Q: With `C[C@@H]1CC[C@H]2[C@](C)(CO)[C@@H](O)CC[C@]2(C)[C@@]12CC[C@@](CO)(CCO)O2` [lagochilin] as the molecule, how does the “ATP (composite Z-score)” value read?
A: −0.029

Q: For `NC(=O)C1(O)C[C@@H](O)C(O)[C@H](O)C1` (some centres unmarked) [quinamide], which “ATP (composite Z-score)” value is on record?
A: 1.161

Same assay, conditions: Table 4; C2C12 myotubes, 48 h, composite Z-score

Q: With `COc1cc(OC)c2c(c1Cl)O[C@@]1(C(=O)CC(=O)C[C@H]1C)C2=O` [griseofulvic acid, reference compound] as the molecule, how does the ATP read?
A: −1.279

Q: How did the ATP turn out when `COc1cc2c(cc1OC)[C@@H]1C(=O)c3ccc4c(c3O[C@@H]1CO2)C=CC(C)(C)O4` [deguelin(−), reference compound] was run?
A: −5.123

Same assay, conditions: composite Z-score vs DMSO wells; Conc 20 μM

Q: For `O=C1C(O)=C(O)C(=O)C(O)=C1O` [tetroquinone], which ATP is on record?
A: 0.130

Q: With `CCCC(=O)Nc1ccc(OCC(O)CNC(C)C)c(C(C)=O)c1` (centres unmarked) [acebutolol] as the molecule, how does the ATP read?
A: 0.310

Q: Which ATP does the source give for `C[N+]1(C)CCCC(OC(=O)C(O)(c2ccccc2)c2ccccc2)C1` (centres unmarked) [mepenzolate] here?
A: 0.633

Q: Which ATP does the source give for `CSCC[C@H](NC=O)C(=O)N[C@@H](CC(C)C)C(=O)N[C@@H](Cc1ccccc1)C(=O)O` [N-formylmethionyl-leucylphenylalanine] here?
A: 2.059

Q: Which ATP does the source give for `CC(=O)O[C@H](CC(=O)[O-])C[N+](C)(C)C` [acetylcarnitine] here?
A: 0.681

Q: `CN1C[C@H](C(=O)N[C@]2(C)O[C@@]3(O)[C@@H]4CCCN4C(=O)[C@H](Cc4ccccc4)N3C2=O)C[C@@H]2c3cccc4[nH]cc(c34)C[C@H]21` [dihydroergotamine] was tested. Which ATP did it give?
A: 0.585

Q: For `O=c1[nH]c(=O)n([C@H]2C[C@H](O)[C@@H](CO)O2)cc1F` [floxuridine], which ATP is on record?
A: 0.511

Q: For `CN(C)CCOC(=O)C(c1ccccc1)C1(O)CCCC1` (centres unmarked) [cyclopentolate], which ATP is on record?
A: 0.293

Q: Which ATP does the source give for `CC(C)(Sc1cc(C(C)(C)C)c(O)c(C(C)(C)C)c1)Sc1cc(C(C)(C)C)c(O)c(C(C)(C)C)c1` [probucol] here?
A: −0.915

Same assay, conditions: composite Z-score vs DMSO; Conc 8.92 μM

Q: How did the ATP turn out when `CC(CN(C)C)CN1c2ccccc2Sc2ccccc21` (centres unmarked) [trimeprazine] was run?
A: −0.459

Same assay, conditions: composite Z-score vs DMSO; Conc 20 μM

Q: How did the ATP turn out when `C[C@@]12CCc3occc3[C@H]1CC[C@@]13C[C@@H](CC[C@H]12)[C@@](O)(CO)C3` [cafestol] was run?
A: 0.332

Q: With `CC[C@@H](C)C(=O)O[C@H]1[C@H](O)[C@H]2[C@@H](CN3C[C@@H](C)CC[C@H]3[C@@]2(C)O)[C@@H]2C[C@]34O[C@]5(O)[C@@H](OC(=O)[C@@](C)(O)CC)CC[C@@]3(C)[C@@H]5[C@@H](OC(C)=O)[C@@H](OC(C)=O)[C@H]4[C@@]21O` [protoveratrine A] as the molecule, how does the ATP read?
A: 1.266

Q: Which ATP does the source give for `CC(=O)OCC(=O)[C@@]1(O)[C@H](C)C[C@H]2[C@@H]3CCC4=CC(=O)C=C[C@]4(C)[C@@]3(F)[C@@H](O)C[C@@]21C` [dexamethasone acetate] here?
A: 0.307

Q: Which ATP does the source give for `Cc1ccc(/N=C/N(C)/C=N/c2ccc(C)cc2C)c(C)c1` [amitraz] here?
A: 0.305

Q: How did the ATP turn out when `C[C@@H]1O[C@@H](O[C@H]2[C@H](O[C@H]3CC[C@@]4(C)[C@@H](CC[C@]5(C)[C@@H]4CC=C4[C@@H]6CC(C)(C)CC[C@]6(C(=O)O)CC[C@]45C)[C@]3(C)CO)OC[C@H](O)[C@@H]2O)[C@H](O)[C@H](O)[C@H]1O` [sapindoside A] was run?
A: −4.232

Q: With `C[C@]12C=CC(=O)C=C1CC[C@@H]1[C@@H]2CC[C@]2(C)C(=O)CC[C@@H]12` [androsta-1,4-dien-3,17-dione] as the molecule, how does the ATP read?
A: −0.063

Q: `N=C(N)N.N=C(N)N.O=C(O)O` [guanidine carbonate] was tested. Which ATP did it give?
A: −0.171

Q: How did the ATP turn out when `N=C(N)N/N=C/c1c(Cl)cccc1Cl` [guanabenz] was run?
A: 1.035

Q: With `C[C@@H]1O[C@@H](O[C@H]2C[C@@H](O)[C@]3(CO)[C@H]4[C@H](O)C[C@]5(C)[C@@H](C6=CC(=O)OC6)CC[C@]5(O)[C@@H]4CC[C@]3(O)C2)[C@H](O)[C@H](O)[C@H]1O` [ouabain] as the molecule, how does the ATP read?
A: 0.320

Q: `OC[C@H]1O[C@@H](n2cnc3c(NCc4ccco4)ncnc32)[C@H](O)[C@@H]1O` [kinetin riboside] was tested. Which ATP did it give?
A: −2.070

Q: Which ATP does the source give for `O=c1c(-c2cc(O)c(O)c(O)c2)coc2cc(O)c(O)c(O)c12` [irigenol] here?
A: 0.611

Q: How did the ATP turn out when `CC(C)[C@@H](C)C=C[C@@H](C)[C@H]1CC[C@H]2C3=CCC4CC(=O)CC[C@]4(C)[C@H]3CC[C@]12C` (some centres unmarked) [ergosta-7,22-dien-3-one] was run?
A: 0.167

Q: For `COc1cc(OC)c2c(=O)c(-c3ccccc3)c(C)oc2c1OC` [2-methyl-5,7,8-trimethoxyisoflavone], which ATP is on record?
A: 1.653

Q: With `CC1=C(CCC(=O)O)c2cc3[nH]c(cc4nc(cc5[nH]c(cc1n2)c(C)c5C(C)O)C(C)=C4C(C)O)c(C)c3CCC(=O)O` (centres unmarked) [haematoporphyrin] as the molecule, how does the ATP read?
A: −0.917

Q: ginkgolic acid was tested. Which ATP did it give?
A: 0.489

Q: Which ATP does the source give for `C[C@@]12C(=O)OC(=O)[C@]1(C)[C@H]1CC[C@@H]2O1` [cantharidin] here?
A: −6.195

Q: Which ATP does the source give for `COc1ccc2c(c1)CC[C@@H]1[C@@H]2CC[C@]2(C)[C@@H](O)CC[C@@H]12` [estradiol methyl ether] here?
A: 0.823

Q: For `CC(CN(C)C)CN1c2ccccc2Sc2ccccc21` (centres unmarked) [trimeprazine], which ATP is on record?
A: −3.762

Q: How did the ATP turn out when `NCCCCCN` [cadaverine] was run?
A: 0.066

Q: How did the ATP turn out when `C=C(C)[C@@H]1CC[C@]2(C(=O)O)CC[C@]3(C)[C@H](CC[C@@H]4[C@@]5(C)CC[C@H](O)C(C)(C)[C@@H]5CC[C@]43C)[C@@H]12` [betulinic acid] was run?
A: −0.271

Q: Which ATP does the source give for `CCCCCC1C(=O)CCC1CC(=O)OC` (centres unmarked) [dihydrojasmonic acid, methyl ester] here?
A: −0.049

Same assay, conditions: composite Z-score vs DMSO; Conc 20.38 μM

Q: How did the ATP turn out when `C[C@@]12C(=O)OC(=O)[C@]1(C)[C@H]1CC[C@@H]2O1` [cantharidin] was run?
A: −6.628

Same assay, conditions: composite Z-score vs mock-treated (DMSO) wells; Conc 20 μM

Q: With `COc1cc(OC)c2c(c1Cl)O[C@@]1(C(=O)CC(=O)C[C@H]1C)C2=O` [griseofulvic acid, reference compound] as the molecule, how does the ATP read?
A: −1.279

Q: For `COc1ccc(/C=C/c2cc(O)cc(O)c2)cc1` [resveratrol 4′-methyl ether], which ATP is on record?
A: −0.649

Q: For `CC(C)=CCc1c(O)cc(C)oc1=O` [2-isoprenyl-3-hydroxy-5-methyl-a-pyrone], which ATP is on record?
A: 0.004

Q: How did the ATP turn out when `Cc1ccc2c(c1)CC[C@H]1CC(=O)CC[C@]21C` was run?
A: −0.267

Q: Which ATP does the source give for `CC1(C)C(=O)C=C[C@]2(C)[C@H]3CC[C@@]4(C)[C@H](c5ccoc5)OC(=O)[C@H]5O[C@]54[C@]3(C)C(=O)C[C@@H]12` [deacetoxy-7-oxogedunin] here?
A: −0.025

Q: For “3-deoxo-3beta-acetoxydeoxydihydrogedunin”, which ATP is on record?
A: −0.605

Q: Which ATP does the source give for `CC(=O)O[C@@H]1CC2C(C)(C)[C@H](O)C=C[C@]2(C)C2CC[C@@]3(C)[C@H](c4ccoc4)OC(=O)C4OC43[C@@]21C` (some centres unmarked) [gedunol] here?
A: 0.637

Q: How did the ATP turn out when `COc1cc(-c2coc3cc(O[C@@H]4O[C@H](CO)[C@@H](O)[C@H](O)[C@H]4O)c(OC)c(O)c3c2=O)cc(O)c1OC` [iridin] was run?
A: 0.161

Q: `COC(=O)C[C@H]1C(C)(C)[C@@H](OC(C)=O)[C@@H]2CC3C4CC(=O)O[C@@H](c5ccoc5)[C@]4(C)CCC3[C@@]1(C)C2=O` (some centres unmarked) [dihydrofissinolide] was tested. Which ATP did it give?
A: −0.079

Q: `COC(=O)C[C@H]1C2(C)CC34OC5(C)O[C@@]6([C@H](OC)C(OC(=O)C(C)C)[C@]7(C)C(/C(=C(/OC)C(C)C)C(=O)O[C@H]7c7ccoc7)[C@@]6(O5)[C@H](OC)[C@@]3(OC)C2OC(C)=O)[C@]14C` (some centres unmarked) [chukrasin methyl ether] was tested. Which ATP did it give?
A: 0.533

Q: For `C=C(C)/C=C1/C=CC(=O)C(C)=C1` [retusoquinone], which ATP is on record?
A: −8.276

Q: `CC(=O)O[C@@H]1CC(=O)[C@@]2(C)C(CC(=O)[C@]3(C)C2CC[C@@]2(C)[C@H](c4ccoc4)OC(=O)C4OC423)C1(C)C` (some centres unmarked) [1,7-dideacetoxy-1,7-dioxokhivorin] was tested. Which ATP did it give?
A: 0.712

Q: How did the ATP turn out when `CCOC(=O)C1(O)Oc2cc(OC)cc(OC)c2C(=O)C1c1ccccc1` (centres unmarked) [2-ethoxycarbonyl-2-hydroxy-5,7-dimethoxyisoflavanone, reference compound] was run?
A: −1.500

Q: `COc1ccc(-c2coc3c(OC)c(OC)cc(OC)c3c2=O)cc1` [isotectorigenin trimethyl ether] was tested. Which ATP did it give?
A: −0.305

Same assay, conditions: normalized composite Z-score vs mock-treated (DMSO) wells; Conc 20 μM

Q: For `CC(C)=CC1C(CO)C1(C)C` (centres unmarked) [chrysanthemyl alcohol], which ATP is on record?
A: 0.964

Q: Which ATP does the source give for `COc1c(CC(=O)c2cc3c(cc2O)OC(C)(C)C(O)C3)ccc2c1C=CC(C)(C)O2` (centres unmarked) [dihydromunduletone] here?
A: −2.030

Q: Which ATP does the source give for `COc1ccc2c(=O)c(CC(=O)O)coc2c1` [anhydrobrazilic acid, reference compound] here?
A: −1.204

Q: How did the ATP turn out when `CC1CCC23CCC4(C)C5(C)CCC6C(C)(C)C(=O)CCC6(C)C5CCC4(OC2=O)C3C1C` (centres unmarked) [3-oxoursan (28-13)olide] was run?
A: 0.062

Q: Which ATP does the source give for `C=C1CCC(C2CC(=O)OC2=O)C(=O)CCC2C1CC2(C)C` (centres unmarked) here?
A: −0.614

Q: For 1,2alpha-epoxydeacetoxydihydrogedunin, which ATP is on record?
A: −0.934
